Data published in paper PMC10726135.
This is one part of the list. At the low end of the ranking, values are background and their order means little. The protein was read in a cell extract, so binding may be indirect.

These sequences were tested against T1, HNF4alpha2 (COS-7 nuclear extract) (UniProt P41235) (assay: protein-binding microarray). Conditions: COS-7 nuclear extract on double-stranded Agilent 4x180k PBM; binding buffer, salt, pH and temperature not given; high values mean tight binding; double strand, one strand shown; sequences stand for … in …GCCTAGGGAGATTAGAGTATCGGTCGA.
T1 sequence: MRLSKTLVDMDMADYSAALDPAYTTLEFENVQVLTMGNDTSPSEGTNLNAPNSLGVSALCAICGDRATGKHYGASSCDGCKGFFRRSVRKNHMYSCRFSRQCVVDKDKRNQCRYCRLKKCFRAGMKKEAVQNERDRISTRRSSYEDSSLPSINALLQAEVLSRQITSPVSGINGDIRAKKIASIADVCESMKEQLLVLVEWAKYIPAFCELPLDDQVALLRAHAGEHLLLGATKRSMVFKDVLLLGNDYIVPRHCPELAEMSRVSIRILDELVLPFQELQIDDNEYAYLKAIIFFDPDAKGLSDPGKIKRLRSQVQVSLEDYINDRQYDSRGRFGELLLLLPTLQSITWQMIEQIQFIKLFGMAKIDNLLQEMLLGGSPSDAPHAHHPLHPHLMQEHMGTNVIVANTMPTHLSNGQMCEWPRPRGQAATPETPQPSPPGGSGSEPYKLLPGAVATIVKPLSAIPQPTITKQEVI

| Sequence | binding signal (log2 normalized intensity) |
| --- | --- |
| GTTGGTTTCTGGGATTTGTACAAGTGATTG | 1.89 |
| GGCCTTGGGCCACCTGAGACAGTTTATGCC | -0.994 |
| AGAAATATCAGCAAGGAAATAAAAGAGCCT | -1.34 |
| TGATGACGCCACGCCGCTCTTTCTCTTTCA | -1.08 |
| CTTACTTGGCCTGTTTGCTGAAGGCCATGC | 0.0452 |
| CAGAGGGAAGAGGAAGCATCCTATAGGCCT | -1.05 |
| AAGATAGGAATGTACATAATCTGGACCCAA | 3.59 |
| GAAACCCTAAACCTGCAAACCTTTGACCTT | 5.31 |
| TGCTGTCTGTCTTCGGGCGGCGGCCTCTGG | 0.733 |
| CAGAAAGCTCTTTGCACAGTACTGATCTGG | 0.94 |
| GCCTAGGTATTGAGGGAGCAAAGGGCATGG | 3.41 |
| CCGCGATTCCCGCCGCCTCCGCTGGGGGAC | -1.16 |
| AATGCGAGAGTACACAGAAGTTAATTTCAA | -1.21 |
| CTTCCCAATCAGAAACCGGGCCAATGGGTT | 0.701 |
| CTTCAGCTTGAAAACACAACAAAAGAACTC | -0.456 |
| TCATTTCAGCCTTAACTCAAAAGGCCAAAG | -0.978 |
| TTTGGTACTCTTATCAGCAGTGACTTGAGA | 0.303 |
| GGGGCGATGCTTCCAAAGTCCACAGTCCCC | 2.91 |
| AGGGTTATGGGAAGTGGGGTAAGCAAGGCT | -1.25 |
| AAGAGGCTGTCAACGGAGGTGGGAAAGACT | -1.11 |
| TGAGCACATTCTTCAATATCAGTGGCACTC | -0.0767 |
| TTACAACTGTAAACATCTAATGAACTGATT | -1.03 |
| CTCTAAATTCCAGGGCTGGGTCCAGGAATG | 0.442 |
| AGATTACTTCAAGGCTGGAGTTCACTCCCA | -0.354 |
| GCAACTATTTATGAGTCTTGGGAATGAATC | 1.61 |

| Sequence | binding signal (log2 normalized intensity) |
| --- | --- |
| CAGAGCTTGCTGCATTCCCCCACCTACTGT | 3.6 |
| AGGCTGTCAGAGTGCTGCATGCAAAAAGGC | -0.743 |
| GCCTCTCAGCTCATTCAAAGTCCAAAAAGA | 2.84 |
| TCCCCTGAGCTTGAGTCCATCCCATCTTCC | 1.39 |
| GAGACAATCACTTGTATCGCCTGAATGACC | 1.74 |
| CAGGCCAGTAGGTCAGTGTCCCTCTTATAC | 1.34 |
| TAATGCTGGTAAAGCACTTTGCCCCCAAGA | 5.54 |
| GCTTTGTTCTGTTCCAGTTATGTTCTCTGT | 2.07 |
| GGGTAACTGACCTTGTTGCCCACCCCCCAA | 5.88 |
| CTTATCTGGCCTGCTGGGAACTCAGGATCA | -1.15 |
| CATCCAAAGTTTCCTCTCCTGCCCTACTCC | 2.61 |
| CTGTCGTCCCAGGGCAAAGGTCACCAGCTA | 6.66 |
| GCCAAGGAAGAGAAGACCAAACAACCAGGG | -0.987 |
| GAGTTCCTTCAGACCCAATAAACTTGTTTG | 0.0934 |
| TGGTATCCACAGAGTTCATAATTTTGGACT | 2.52 |
| AAGCCTCAGGAGTTGGAGGAACAGGTGGGG | -1.09 |
| TGCTGAGTATGCAGCGGGCAGCCCGTGTGG | -1.02 |
| TAGGCCGGTCAAGTCAGAGGCCCAGCAAGG | -1.17 |
| ACCAGTCCCATCTGTGCTCATTATTATCAG | 0.942 |
| CGGGTGGACGTCCCCGGGCGGGATGGGGTC | 1.69 |
| GAGTGAAGCCACAGAGATCAGAATCATAAA | -1.12 |
| CAGGCTCAGGGACCCAGCGGAATGCCAGCC | -0.98 |
| CAAACAGCTTCCAGAATAGCCTCTGCAACT | -1.14 |
| CCTCATGGGCGATCCCGAAAGCCGGTTCCC | -1.19 |
| GTATGTGCCTGGAGAGCTAGTAAGGAGCTG | -1.17 |

| Sequence | binding signal (log2 normalized intensity) |
| --- | --- |
| CTGCGGCGGAAGGACACAGATTCAGAGTCA | -1.21 |
| TTGAGCTCTGCACAGCACAAGATAAGATAG | -1.02 |
| GTCCATGATTGCTGTCTACTCTGGGGGTCA | 3.52 |
| AGGTCAAAAATGATGCCTGACTCAAGAAAG | -1.19 |
| CAAAGTCCAGTAAGGACAGTTCCAGGAATG | 1.54 |
| AAAGGGCAAAGGTCAGCTCATTCCCTAGGG | 6.27 |
| GGGCAAAGTCCCCTTTCCTCATATTTTGCA | 2.13 |
| GTCTATCCTTATTTATCTTCCAGCGGGTGC | 1.78 |
| AGGGTGAAGTTTGGCAATTACCCAACAGAC | -1.22 |
| ACCAAAAAGGCTAACTTACCCGCTTAAGAG | -1.13 |
| GGACTTTGAAGCTCCAAGATAGGAATGTAC | 2 |
| GGGCAAAGGAATAAAATAGCTGCCTGTGTG | -1.14 |
| TGAATATTTGCTTTCCAGTTCTTTGATAGC | 1.44 |
| TCCATTCCGCGAGGGTCCCCACCTTCCATT | 1.41 |
| CTGAGATAGTCATTCTTCTACAGTGTTTAC | 0.901 |
| AAGGATCAAAGTCACTCAGCCCGAGAAACG | -1.14 |
| CCACATGGATGGATTCAGATCCAGTGGACT | 2.18 |
| TACAAGGAGCAGCCTAGTAAAAGGTAGATA | -1.21 |
| GACATCTATCAACATATCTTATCCTCACAC | -0.201 |
| TACCAGATAGATGCTGCTCTCCCACTCCCC | 2.28 |
| CCTCGAGGCAACCTTTGACCTGGTACTATG | 6.02 |
| AGAATGACCAGGAGTTTGGGATCAGACACG | -1.05 |
| CCACACCTGTGAAGATCAGCTATCAGTTTA | -1.18 |
| AAGAAAAGTTATGTTGGGCAACTACCTCAA | -1.08 |
| CCACACATTGCCACACTATTTACACAGCTG | -1.07 |

| Sequence | binding signal (log2 normalized intensity) |
| --- | --- |
| AAATGCATTATTGCACTGTGCTTTGTTTAC | 1.4 |
| CCAACCGGTTCCACAGTATCCCTTGCTCAA | -1.14 |
| TTCTGCTGGATGCCCAGGGATTCCTGAAGA | -0.0749 |
| TGCCAAAGGTTAAAATTCCCTGTGGAATTT | 1.86 |
| GATTTTGTCCTGAGTTATTGGAAGAATGGA | 1.3 |
| TTGGAATGTGACGGCAGGTCCATGGTCAGC | 0.879 |
| GGTATGCCTTTGAAGAGTACAGCCTTGCGT | 0.667 |
| GGCTGAATGGGCAAAGGTCACAAGAGGTGC | 4.6 |
| GCCTCCCAGAACGTGGCCTTTAATCAACTG | -0.0774 |
| AGAGTGCTTAATCTCTGCTCATAATGCCAG | 0.0183 |
| ACTTGGGATGCTGAGGTGGGAGGATCGCTT | -0.0501 |
| TGGACTGTAATACACAAGCAATAGGGTTCG | 0.186 |
| GCAAGGAACGGAATGTGTGATAAGGAACTG | -0.447 |
| AACTGGACAAATTCCTGGGAACTGCGGACA | -1.27 |
| GCTGGCCTCATGCCTTATCTACATAGTCCC | 0.0173 |
| AATAAGGCTGCGACCTGCTGGGCTGCATTC | -1.29 |
| AGGGGTTACTAGTGAGTTGGACTTTGGACC | 11.6 |
| GCCACTCATAGAACTGTCGCAGAAAACACA | -1.23 |
| CCTATGGGATCAAAGTGCGACAGGGAGATT | 2.93 |
| GGTGTAGGGCAGAGGTCAGCCCACAGGTCA | 2.78 |
| AGAGTTCAAGAAGGGCAGTTGACAGAGGAC | -0.674 |
| CATACAATTCATGACTCTCTTATAGGTGTT | 1.81 |
| TGAACCTAGATTCCAGGAAGAAAGATTGAA | -1.1 |
| AGTCCAAAGGTCTGAGAACCAAGAGAGCCA | 0.782 |
| GGTGCTGCATGGGCTGAGCCCAGCAAACCT | -1.24 |

| Sequence | binding signal (log2 normalized intensity) |
| --- | --- |
| TGCTGGCTGGCGGCCTTTGGGTCCCTGGCC | -0.641 |
| CATTCCAACACAGGGTCAATGTCCCCTTAG | 3.01 |
| CACCCCCACGGTGCGCTGCCCCTCACTGCC | 4.83 |
| CTGCTTACATTTTGCTCTGTTGTGTCAAAG | 1.83 |
| GCAATGATCTTCATGAACTTCTGTCCACAG | 0.611 |
| GAAGGACATAAATGTGCCCAGATAAGAACT | -1.1 |
| ACTGCTCCACCAGCGCGTGCCTTCCCTGCA | -1.23 |
| GATAGCAAGGAGACATCGCTCCTCCCTTCT | -1.24 |
| AAAGTTCTGCTGAGTATCCAAAGGTCAGTG | 5.25 |
| GATCTGAACTCAAGCTCTTAAAGAAGCAGT | -0.875 |
| AGGCAGTCTGTTGACCTTTGGCCAAGGGCA | 7.73 |
| GCTTATCTGGGAGGGGGAGGTTTTGTGTCT | 1.26 |
| TAGGGACAGCTAGTCTAGACTTTGCTTTCT | 3 |
| TGTGCAGAGAGCAAACGAACCGGCAGCCGC | -1.06 |
| GATTTGTAACCTGCAAAGAGCAAACTCCAG | -0.952 |
| ACTTACATCCTCAGGTAAAGATCAACCATC | -0.587 |
| GCGTAGCCCAAAGGTCAGTCTGCAGCTAAT | 2.48 |
| TTTCCTAAATATGTTCCAAAGTTCAACCAG | 4.11 |
| ACTTTGGCCGTGAAGCCGTCCTGTCCTGGA | 0.362 |
| AACACAAAAAGCCTGAGCATCTTATCAGCA | -1.23 |
| ACTTGTTCCGGATAGCCAAATAGCCTGGTC | -0.584 |
| GGCTTAGCAGCTTGAGGCTCCGATAAACCC | -0.935 |
| CTGTGTATACAAAGATCAGTGTACTTAAAA | 1.54 |
| AACACTCACTGGGAGAGAAAGCTAATTTAA | -1.09 |
| TTTCATCAGTCCAATTCACAGAACTCCCTA | -1.15 |

| Sequence | binding signal (log2 normalized intensity) |
| --- | --- |
| ACACTCTCAATCTTTGCCCTCTTGGTATCA | 2.62 |
| GGGGAGGTCAACCAGGGAAATTACCCTCTA | -0.241 |
| AGTTGAGGTGAATACACAGCTAGCAGGTGA | -0.101 |
| AGACCTTTGTTCACTTGTTTATCTGCTGCC | 2.35 |
| AGAGCTCAGATGAACTTTGCCTTAGGCCAT | 3.41 |
| GCTCCAGCCACTCATTCTTGGAATGCATTG | -0.921 |
| TTCCCTACCCGGCAAAGAATTGTGAGTCCA | 1.79 |
| TTCAGAGATGATAAGCCCTGAGTAGTTCTT | 0.316 |
| GCATGTCTCTGGTCGGGGAGGTGTTTATCT | 1.78 |
| GGAGTATAGGAACATGAACTGAGCAGGCCT | -1.04 |
| TGTATAATGACACTAGCAGAAGAGACAGTC | -1.04 |
| CACTCAATGCAGCAGCATTGGACCCTCCCA | 5.46 |
| CTCTCACTGCAGAAACTCTGCAGTAACTGT | 0.0964 |
| TCATGGGAATGAAAGGAGGTCATGTACATG | 1.34 |
| TGTTTGTTTTGAGATAGGGTCTTGCTTTGT | 1.76 |
| TTGAAATCTCAAATAGCTGGGTCTCACTCT | -1.1 |
| AAGTAGAGGAATGCTGGTAAACACTGAGCT | -1.14 |
| AGCAGCAAAGTCCTGGAAGAAACCCATTTG | -1.14 |
| TACACATCAAAGTATGAGAGCCTGAGAACA | -1.04 |
| TCAAAGGGAGATTCCTGACATTCAGTCTTT | -0.503 |
